The campaign covered roughly 2,800 compounds. Fewer than 10 were called active. Calls come from the whole dose curve; as a rule, active = well fitted curve in the direction sought with a large enough effect; inconclusive = small, poorly fitted or top-dose-only effect, or another doubt; inactive = no such curve, though single readings can be large or run the other way. The list shows a part of the results.
Target: Metallo-beta-lactamase type 2 (Klebsiella pneumoniae) (UniProt C7C422)
Experiment: qHTS to identify inhibitors of the New Delhi Metallo-beta-lactamase (NDM): Meropenem screen against the machine-based learning selections. Note: % of control where 0% means no effect.
Conditions: Purified NDM-1, meropenem hydrolysis, absorbance 300 nm; at 38.4 µM (top of the series) unless noted
Procedure, shortened: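 NDM-1 (2 nM final) in 50 mM HEPES pH 7.0, 1 uM Zn2SO4, 0.01% Tween20 was preincubated with compounds for >30 min. Nitrocefin (16.7 uM final) was read at 485 nm after 15 min, and meropenem (50 uM final) at 300 nm after 30 min.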

UniProt C7C422, sequence (C7C422 whole entry, looked up): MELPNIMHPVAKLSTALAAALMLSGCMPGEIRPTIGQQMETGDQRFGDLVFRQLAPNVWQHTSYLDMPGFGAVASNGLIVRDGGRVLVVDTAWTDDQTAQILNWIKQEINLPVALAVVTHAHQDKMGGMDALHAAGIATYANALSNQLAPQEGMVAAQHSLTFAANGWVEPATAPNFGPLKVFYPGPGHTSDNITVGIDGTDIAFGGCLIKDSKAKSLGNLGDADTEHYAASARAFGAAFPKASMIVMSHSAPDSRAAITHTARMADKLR

Activity change, negative = inhibition, inactive:
COCCOc1ccnc(-c2noc([C@@H]3CCCN3Cc3ccc4c(c3)OCO4)n2)c1 4.05% [at 57.5 µM]
CC(C)(C)C(=O)N1CC[C@@H](CC(=O)O)[C@@H](CC2=NCCc3cc(F)ccc32)C1 26.2% [at 57.5 µM]
CCNC(=O)N[C@@H]1C=C[C@@H](c2c(C)nn(-c3ccc(OC)cc3)c2C)C1 1.36% [at 57.5 µM]
COCC(=O)N[C@@H]1CN(Cc2ccc(C)cn2)C[C@H]1CO -2.12%
COCCc1noc(CN(C)c2cc(C(C)C)nc3ccnn23)n1 -1.68%
CC(C)(C)c1cc(CC2(NCc3ccc(Cl)cc3)COC2)no1 -2.28% [at 57.5 µM]
CCOCC(=O)N1CCn2nc(Cc3ccccc3)cc2C1 -0.143%
COc1ccc2[nH]c(C[C@@H]3C[C@@H](C(C)C)[C@H](CN(Cc4ccccn4)Cc4ccccn4)C=C3C)nc2n1 38.7%
CC(C)(C)c1ccc2oc(CNC(=O)CN3C(=O)CNC3=O)nc2c1 -0.922%
Cc1ccc(-n2nc(C)c([C@@H]3C=C[C@@H](NCc4cccc(C#N)c4)C3)c2C)cc1Cl -1.91% [at 57.5 µM]
O=C(Cc1ccc(OC(F)(F)F)cc1)N1CC2CC(C1)[C@H]1CCCC(=O)N1C2 (stereo partly specified) -2.02%
COc1ccc(C(=O)N2CCC3(CC2)CC(OCC2CC2)CCO3)cn1 (stereo unspecified) 1.34%
CCCNC(=O)N[C@@H]1CCC[C@@H](C(=O)NCc2ccc(OC)cc2)CC(=O)N(C)C1 2.38% [at 57.5 µM]
Cc1c(C(=O)NC2CC(c3nnc(CO)n3C3CC3)C2)n(C)c2c(C)cccc12 (stereo unspecified) 3.14%
CC(C)(C)CC(=O)N[C@H]1C[C@H]2C(=O)Nc3ccc(-c4cccs4)cc3C(=O)N2C1 8.4% [at 57.5 µM]
CS(=O)(=O)N1CC(C(=O)Nc2ccc(N3CCOCC3)cc2)C2(CCCCC2)C1 (stereo unspecified) -0.306%
CS(=O)(=O)N1CCC(C2CCN(C(=O)Cc3cccs3)C2)CC1 (stereo unspecified) 0.291%
CC(=O)Nc1ccc(CC(=O)N2CCC(C)(c3noc(C)n3)CC2)cc1 0.338%
CC(C)Nc1ncc(C(=O)NC2CCCN(CCc3ccccc3)C2)cn1 (stereo unspecified) 1.19%
CC1(C(=O)NCc2cccnc2)CCc2cnc(NCc3ccccc3)nc21 (stereo unspecified) -3.15% [at 57.5 µM]
O=C(O)c1cccc([S+](=O)([O-])N2CC(CNC(=O)c3ccccc3)C3(CN(c4ccccc4)C3)C2)c1 (stereo unspecified) -2.54%

Reference: PubChem BioAssay AID1794842 (National Center for Advancing Translational Sciences (NCATS), 2023)
